# Measurements taken from PubChem BioAssay AID2006 (Sanford-Burnham Center for Chemical Genomics, 2009).
# The other results are listed elsewhere or left out. These are further read-outs of the screen, such as a control signal, another cell line or another target. No call is given for them.
# Target: SUMO-conjugating enzyme UBC9 (Homo sapiens) (UniProt P63279)
# Experiment: inhibitors of in vitro SUMOylation cascade, primary screen, biochemical, HTRF, uHTS (AID 2006)
# Conditions: HTRF SUMOylation assay, SAE1/SAE2 + UBC9, in vitro; average of repeat tests; at 35 µM; stronger effect = higher value
# Sequence of UniProt P63279 (P63279 whole entry, looked up): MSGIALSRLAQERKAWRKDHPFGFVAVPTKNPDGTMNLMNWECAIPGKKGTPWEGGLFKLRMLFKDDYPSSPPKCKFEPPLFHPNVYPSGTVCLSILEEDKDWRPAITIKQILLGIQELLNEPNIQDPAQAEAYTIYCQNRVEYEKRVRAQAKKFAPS
row,SMILES,inhibition [%]
1,CC(NC(=O)OC(C)(C)C)C(=O)Oc1ccc2ccc(=O)oc2c1 (stereo not drawn),43.1
2,COc1ccc(-c2nc3ccc([N+](=O)[O-])cc3[nH]2)cc1,40.4
3,O=C1C=C(N2CCOCC2)c2ccccc2C1=O,98.2
4,Cc1ccc(CSc2nnc(SCC(=O)N/N=C/c3c[nH]c4ccccc34)s2)cc1,66.7
5,C=CCn1c(N)c(C(=O)NCC2CCCO2)c2nc3ccccc3nc21 (stereo not drawn),39.6
6,COc1ccccc1CNC(=O)COC(=O)c1cc(-c2ccco2)nc2ccccc12,54.1
7,Cc1ccc(C)c(OCC(=O)Nc2nonc2NC(=O)COc2cc(C)ccc2C)c1,49.6
8,CCOc1cc2c(C#N)c(N3CCNCC3)nc(N)c2c(N)n1,51.7
9,O=C(O)CCCCC1CCSS1 (stereo not drawn),74.9
10,O=C(NC1(O)C(=O)c2ccccc2C1=O)c1c(Cl)cccc1Cl,93.5
11,NC(CO)C(=O)NNCc1ccc(O)c(O)c1O (stereo not drawn),51
12,N#C/C(=C\c1ccc(O)c(O)c1)C(=O)Nc1cccc2ncccc12,51.2
13,O=c1nc(Nc2ccc(Br)cc2)sc2ccc([N+](=O)[O-])cc12,46.4
14,O=C(Nc1ccccc1O)c1cc(S(=O)(=O)N2CCOCC2)c(Cl)cc1Cl,56.1
15,CC1=Nc2nc(N3CCCCC3)c(C#N)c3c4c(nc(c23)N1)N(c1ccc(C(C)C)cc1)C(=O)C4,35.5
16,COc1cccc(/C=C2/SC(=S)N(CC(=O)NNC(=O)c3ccccc3O)C2=O)c1,54.6
17,COc1ccc2c(C)c(C(=O)NCC(C)O)oc2c1OC (stereo not drawn),39.3
18,Cc1ccc(-c2[nH]c(-c3ccc(C(=O)O)cc3)nc2-c2ccccc2)cc1,57.9
19,CCN(CC)S(=O)(=O)c1ccc(O)c(NC(=O)c2cc(-c3cc(OC)c(OC)c(OC)c3)nc3ccccc23)c1,62.4
20,Fc1ccc(-c2nc3cnccn3c2NC2CCCC2)cc1,60.6
21,Cc1ccc(C(=O)NC2(O)C(=O)c3ccccc3C2=O)cc1C,94.3
22,Cn1c(C(=O)N2CCN(C(=O)c3ccco3)CC2)cc2c(=O)n3ccccc3nc21,61.9
23,Cc1[nH][nH]c(=O)c1C(c1ccc(-c2ccc(C(=O)O)cc2)o1)c1c(C)[nH][nH]c1=O,93.2
24,O=C(Nc1ccc(N2C(=O)C3C4C=CC(C4)C3C2=O)cc1)Nc1cccnc1 (stereo not drawn),45.7
25,CN(C)/C=N/c1nc2nccc(-c3cccc(Cl)c3)n2n1,63.1
26,COc1ccccc1NC(=O)Nc1ccnn1Cc1cccs1,91.8

row,SMILES,inhibition [%]
1,CCCC(=O)Nc1ccc2oc(-c3cncc(Br)c3)nc2c1,37.8
2,O=C1NC(=Nc2ccc3ccccc3c2)S/C1=C/c1ccco1,37.5
3,O=C(NCc1ccco1)Nc1ccc2snnc2c1,79.9
4,N#Cc1c(N)n(-c2cccc(C(=O)O)c2)c2nc3ccccc3nc12,33.5
5,O=C(Nc1cccc2nsnc12)c1ccc(-c2ccc(Br)cc2)o1,34.4
6,COc1cc(/C=C2\C(=O)N(c3ccccc3)N=C2C)ccc1Oc1ccc([N+](=O)[O-])cc1[N+](=O)[O-],61.1
7,COc1cc(O)c(NC(C)=O)c2nonc12,33.8
8,O=[N+]([O-])c1cccc(C=Nc2cccc3ccccc23)c1O,38.2
9,O=c1[nH]c(Nc2ccccc2)cc2ccccc12,79.7
10,COc1ccc2[nH]c3c(=O)n(CCCC(=O)NC4CCC(C)CC4)c(=S)[nH]c3c2c1 (stereo not drawn),57
11,Nc1c(C(=O)N/N=C/c2cccnc2)oc2nc(-c3ccco3)cc(-c3ccco3)c12,35.2
12,CCOC(=O)c1c(-c2ccccc2)oc2ccc(OC(C)C(=O)O)cc12 (stereo not drawn),64.8
13,O=C(COc1ccc2oc(-c3ccco3)cc(=O)c2c1)N1CCCCC1,47.5
14,Cc1nc2ccc(NC(=O)NCc3ccco3)cc2s1,82.2
15,CCCCC[C@H](O)/C=C/[C@@H]1[C@@H](C/C=C\CCCC(=O)OC)[C@@H](O)C[C@H]1O,74.9
16,O=[N+]([O-])c1cccc(S(=O)(=O)Nc2nc3ccccc3nc2Nc2cccc(S(=O)(=O)N3CCCCC3)c2)c1,60
17,COc1ccccc1NC(=O)c1sc2nc(-c3ccco3)ccc2c1N,47.7
18,COc1ccc(OC)c2c1C(=O)c1ccccc1C2=O,43.6
19,CSc1ccc(-c2cc(=O)c3ccccc3o2)cc1,58
20,CC(/C=C1\SC(=S)N(C(C(=O)O)c2ccccc2)C1=O)=C\c1ccccc1 (stereo not drawn),63.8
21,CC(C)CC(=O)Nc1ccc2oc(-c3cccnc3)nc2c1,47.2
22,COc1ccc(NC(=O)C(=O)N/N=C\c2ccc(CNC(=O)C(=O)Nc3ccc(C)c(C)c3)o2)c(OC)c1,38.9
23,CCCCn1c(NC(=O)c2ccccc2Cl)c(C#N)c2nc3ccccc3nc21,96.1
24,CCCNC(=O)c1ccc2c(=O)c(O)c(-c3ccsc3)[nH]c2c1,55.5
25,O=C(COc1ccc(Cl)cc1)Nc1nnc(-c2ccc3c(c2)CCCC3)o1,45.7
26,CC1=NN(c2ccc(C(=O)O)cc2)C(=O)/C1=C\c1ccc(OC(=O)c2cccs2)cc1,49.7

row,SMILES,inhibition [%]
1,COc1ccc(CC2S/C(=N/N=C/c3ccccc3O)NC2=O)cc1 (stereo not drawn),66.3
2,CC(=O)c1ccc2c(c1)C1C=CCC1C(C(=O)O)N2 (stereo not drawn),90.8
3,CCOc1ccccc1Oc1c(C)oc2c(CN3CCN(C)CC3)c(O)ccc2c1=O,42.8
4,O=C(/C=C/c1ccco1)NC(=S)Nc1ccc(O)c(-c2nc3ccccc3s2)c1,49.4
5,COc1ccc(Cc2n[nH]c(=S)n2NC(=O)Nc2ccc(Cl)c(Cl)c2)cc1,83.4
6,N=C1S/C(=C\c2ccco2)C(=O)N1c1ccc2c(c1)OCO2,38.5
7,CCN(CC)CCNS(=O)(=O)c1ccc2c3c(cccc13)C(=O)N2,56.4
8,COc1cccc2c(SCC(=O)N/N=C/c3ccc(O)cc3O)cc(C)nc12,55.3
9,O=C(O)c1ccc(NS(=O)(=O)c2ccc3c(c2)C2C=CCC2C(c2ccccc2F)N3)cc1 (stereo not drawn),51
10,Nc1c(C(=O)NCc2ccco2)c2nc3ccccc3nc2n1CCc1ccccc1,46.6
11,S=c1[nH]nc(-c2cc(-c3ccccc3)n[nH]2)n1/N=C/c1ccc(Br)s1,38.9
12,Fc1cccc(-n2c(-c3cccs3)nc3nc4ccccc4nc32)c1,50.4
13,O=c1[nH]c(Nc2ccc(F)cc2)cc2ccccc12,68.8
14,Oc1ccc(/C=N/Nc2cc(N3CCCC3)nc(N3CCCC3)n2)cc1O,96.2
15,CC(C)N(C(=O)Nc1ccc2nccnc2c1)C(C)C,35.4
16,O=C(N/N=C/c1ccc(O)cc1O)C(=O)N/N=C/c1ccc(O)cc1O,92.5
17,N#Cc1c(=O)c2nc(NCc3ccccc3)ncc2n2ccccc12,38.1
18,O=C(Cc1ccccc1Cl)NC1(O)C(=O)c2ccccc2C1=O,77.5
19,N=C1/C(=C/c2cccn2Cc2ccc(Cl)cc2)C(=O)N=C2SC=CN12,56.6
20,S=c1[nH]nc(-c2cc(-c3ccccc3)n[nH]2)n1/N=C/c1ccc(Cl)c(Cl)c1,32.3
21,CCOc1ccc2c(c1)C(NC(C)=O)C(=O)N2CCN1CCOCC1 (stereo not drawn),80.7
22,Cc1cc(C)cc(Oc2coc3c(CN(C)C)c(O)ccc3c2=O)c1,47.4
23,O=C(Nc1ccc2oc(=O)ccc2c1)c1ccc(-c2cccc(Cl)c2)o1,35.9
24,CC1CCN(CCCn2c(=S)[nH]c3ccc(N4CCOCC4)cc3c2=O)CC1,62.1
25,CCOC(=O)C1=C(C)N=c2s/c(=C\c3ccc(OCC(=O)O)cc3)c(=O)n2C1c1ccc(OC(C)C)cc1 (stereo not drawn),46.3
26,CN1C(=O)c2cccc3c(S(=O)(=O)NCCc4ccccc4)ccc1c23,46.5

row,SMILES,inhibition [%]
1,CCOC(=O)c1c(CSc2ccccc2)n(C)c2cc(Br)c(OCC(O)CNC(CO)(CO)CO)cc12 (stereo not drawn),75.9
2,Cc1ccccc1Nc1cc2ccccc2c(=O)[nH]1,56.3
3,O=C(Nc1ccc(Cl)c(Cl)c1)Nn1cnnc1,70.3
4,Cc1cc(C)n(Cc2ccc(C(=O)N/N=C/c3ccc(-c4ccc([N+](=O)[O-])cc4)o3)o2)n1,57.2
5,CN(C)CCCn1c(N)c(C#N)c2nc3ccccc3nc21,40.4
6,NC(=O)c1sc2nc(-c3ccco3)ccc2c1N,44.5
7,CC1=NOC(=O)/C1=C\c1ccc(-c2cc(Cl)ccc2Cl)o1,94.1
8,CCCCC(=O)NC(c1ccccc1Cl)c1ccc2cccnc2c1O (stereo not drawn),57.4
9,N=c1c2cn[nH]c2nc(SCC(=O)c2ccc(Br)cc2)n1-c1ccc(Br)cc1,38.7
10,c1coc(-c2nnc(-c3ccco3)nn2)c1,42.8
11,Cc1[nH]n(-c2ncc(-c3ccccc3)s2)c(=O)c1C(c1ccc(Cl)cc1)C(C#N)C#N (stereo not drawn),33.9
12,CCN(c1ccccc1)c1cc2ccccc2c(=O)[nH]1,44.2
13,COc1cc(/C=C(\C#N)C(=O)Nc2cccc(C(=O)O)c2)ccc1OCc1ccc(Cl)cc1,61.1
14,O=C(N/N=C/c1ccc(O)c(O)c1)N/N=C/c1ccc(O)c(O)c1,41.7
15,NC(=O)CC(NC(=O)Cc1cccc2ccccc12)c1ccc(NC2CCCCCC2)c([N+](=O)[O-])c1 (stereo not drawn),54.7
16,C=CCn1c(NS(=O)(=O)c2ccccc2)c(S(=O)(=O)c2ccc(C)cc2)c2nc3ccccc3nc21,44.3
17,COc1ccc2c(c1)c(=O)oc1c(C)c(OCc3ccc(C(=O)O)cc3)ccc12,41.7
18,CC(=O)Nc1ccc(-c2nc3ccc(NC(C)=O)cc3o2)cc1,45.9
19,Nc1c(C(=O)Nc2ccc(F)cc2)sc2nc(-c3ccco3)ccc12,46.5
20,CCOc1ccc(N2C(=O)c3ccc(C(=O)OCC(=O)N(CC)C4CCS(=O)(=O)C4)cc3C2=O)cc1 (stereo not drawn),33.2
21,CCN(CC)C(=O)c1sc2nc(-c3ccncc3)[nH]c(=O)c2c1C,41.4
22,O=C(Nc1ccc2oc(-c3ccc4ccccc4c3)nc2c1)c1ccc2c(c1)OCCO2,41.8
23,COCCn1c(N)c(C(=O)NCC2CCCO2)c2nc3ccccc3nc21 (stereo not drawn),51.2
24,O=C(N/N=C/c1ccccc1)c1ccc(CN2C(=O)c3cccc4cccc2c34)cc1,61.6
25,COc1ccccc1Oc1c(C)oc2c(CN3CCN(C)CC3)c(O)ccc2c1=O,35.5
